Results taken from PubChem BioAssay AID1347071 (National Center for Advancing Translational Sciences (NCATS), 2019).
In all, about 410,000 compounds went through this assay and about 260 (0.063%) were called active. Inconclusive results, whose numbers are uncertain, are shown with a selection of clear calls. Calls come from the whole dose curve; as a rule, active = well fitted activation curve with a large enough effect; inconclusive = small, poorly fitted or top-dose-only effect; inactive = no such curve, though single readings can be large or run the other way. Potencies of inconclusive entries are left out as doubtful fits.

Test: qHTS for compounds that reverse cellular toxicity of Amyloid beta (A-beta) peptide in yeast: Primary Screen; note: nearly all actives have a fitted effect of over 55% in size
Settings: yeast expressing A-beta42, growth rescue, OD600, 48 h; growth rescue: at 46.1 µM (top of the series), 0% DMSO, 100% iron-clioquinol control
Summary of the method: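 Yeast growth medium received pinned compounds, then yeast cells expressing toxic A-beta were added; plates incubated at 30 C for 48 hr. Growth read as absorbance at 600 nm, normalized to DMSO and equimolar FeCl3 plus clioquinol controls.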
Potency is the fitted concentration of half-maximal effect; tags give direction and shape of the fitted curve.

Row | Compound | Potency | growth rescue
1 | O=C(Cc1csc2ccccc12)NCc1ccc(F)cc1 | inactive | –
2 | CC(c1ccccc1)n1c(-c2ccc(Cl)cc2)n[nH]c1=S (stereo unspecified) | inconclusive [activator, partial curve, poor fit] | –
3 | Cn1cc(C(=O)NCc2ccccc2Cl)c(=O)c2cc(S(=O)(=O)N3CCCCCC3)ccc21 | inactive | –
4 | O=C(NC(=S)NCCC1=CCCCC1)c1ccccc1Br | inconclusive [activator, partial curve, poor fit] | –
5 | c1ccc(-c2ccccc2OCCn2cncn2)cc1 | inconclusive [activator, partial curve] | –
6 | COc1ccc(F)cc1-c1cc(NC(C)=O)c2ncc(-c3cccc(C(F)(F)F)c3)n2c1 | inconclusive [activator, single point] | –
7 | Cc1ccccc1OCCCCn1c(CCNC(=O)C(C)(C)C)nc2ccccc21 | inconclusive [activator, partial curve, poor fit] | –
8 | FC(F)Oc1ccc(NC(=S)N2CCc3ccccc32)cc1 | inconclusive [activator, single point] | –
9 | CCOC(=O)c1cc(S(=O)(=O)N2CCN(c3cccc(C)c3C)CC2)[nH]n1 | inconclusive [activator, single point] | –
10 | CCc1ccc(OCC(=O)NNC(=S)NC(=O)C2CCCCC2)c(Br)c1 | active: 7.94 µM | –
11 | COc1ccc(CCNC(=O)c2ccc(Br)o2)cc1Br | inactive | –
12 | C=CCNC(=S)NN(c1ccccc1)c1ccccc1 | inconclusive [activator, partial curve, poor fit] | –
13 | CCN(C(=O)CSc1nnc2c3ccccc3n(CC)c2n1)C1CCS(=O)(=O)C1 (stereo unspecified) | inconclusive [activator, single point] | –
14 | Cc1ccc(N2CN(Cc3ccco3)CNC2=S)c(C)c1 | inconclusive [activator, single point] | –
15 | O=C1NC2(CCCCCC2)C(=O)N1Cc1ccc(F)cc1Cl | inconclusive [activator, partial curve] | –
16 | O=C(CCOc1ccccc1)Nc1nnc(-c2ccc3c(c2)OCCO3)o1 | inactive | –
17 | CN(O)C(=S)c1ccccc1 | inconclusive [activator, single point] | –
18 | Cc1cc(C)nc(Nc2nc(C(N)CCc3ccccc3)cs2)n1 (stereo unspecified) | inconclusive [activator, single point] | –
19 | COc1ccc(C(=O)NC(=S)Nc2ccccc2N2CCCCC2)cc1[N+](=O)[O-] | inconclusive [activator, single point] | –
20 | CCn1c(SCC(O)c2ccccc2)nnc1-c1ccccc1 (stereo unspecified) | inconclusive [activator, partial curve] | –
21 | Cc1nnc(SCC(=O)Nc2nc(C(C)(C)C)cs2)s1 | inconclusive [activator, full curve] | –
22 | COc1ccc(S(=O)(=O)Nc2ccc3ccccc3c2)cc1C | inactive | –
23 | CCO[C@@H]1OC(C(=O)Nc2ccccc2)=C[C@H](c2ccc(C(F)(F)F)cc2)[C@H]1CCCO | inconclusive [activator, single point] | –
24 | Cc1cccnc1NC(=S)NC(=O)/C=C/c1ccccc1 | inconclusive [activator, single point] | –

Row | Compound | Potency | growth rescue
25 | O=S(=O)(Nc1ccc(C(F)(F)F)cc1)c1ccc2c(c1)OCCO2 | inconclusive [activator, partial curve] | –
26 | O=C(NCCOc1ccccc1Cl)C(=O)Nc1ccccc1 | inconclusive [activator, partial curve, poor fit] | –
27 | COc1cccc(C(C)(O)c2nc(-c3ccccc3)cs2)c1 (stereo unspecified) | inconclusive [activator, partial curve, poor fit] | –
28 | COc1ccc(-c2nc3ccccc3n3c(-c4ccc(OC)cc4)c4c(=O)n(C)c(=O)n(C)c4c23)cc1 | inactive | –
29 | C/C(=N\NC(=S)NCc1ccccc1)c1ccc(C(C)(C)C)cc1 | inconclusive [activator, full curve, poor fit] | –
30 | S=C(NCc1ccco1)N1CCN(c2cccc(Cl)c2)CC1 | active: 12.6 µM | –
31 | CCC(C)(C)NC(=O)Cc1ccc(Cl)cc1 | inconclusive [activator, single point] | –
32 | O=C(c1cc(-c2ccccc2Cl)on1)N1CCN(C(=O)c2ccco2)CC1 | inactive | –
33 | Cc1cc(SCC(=O)c2cccs2)nc2c(C)cccc12 | inconclusive [activator, partial curve, poor fit] | –
34 | Cc1c(Cl)cccc1-n1nc(C)c2c(C)cc(=O)n(CC(=O)N3CCCc4ccccc43)c21 | inactive | –
35 | O=C(Nc1cc(S(=O)(=O)N2CCCCC2)ccc1N1CCCCC1)C1CC1 | inconclusive [activator, partial curve, poor fit] | –
36 | O=C(COc1cccnc1[N+](=O)[O-])N1CCc2ccccc21 | inactive | –
37 | COCCNC(=O)CSc1nc(-c2ccccc2)[nH]c1-c1ccc(C)cc1 | inactive | –
38 | O=c1c(-c2cc(-c3ccccc3)nc3c2COc2ccccc2-3)coc2ccc(Cl)cc12 | inactive | –
39 | Nc1nc(-c2cccs2)c(CC(=O)O)s1 | inactive | –
40 | CCOc1ccc(/C=C/c2nc(C#N)c(N3CCC(C)CC3)o2)cc1 | inactive | –
41 | COCCNC(=O)CN1C(=O)COc2ccc(S(=O)(=O)N3CCCC3)cc21 | inactive | –
42 | CC1CCN(C(=O)c2ccc(NS(=O)(=O)c3ccccc3)cc2)CC1 | – | inconclusive: -20.1% [activator]
43 | CC(C)(C)c1cn(-c2ccccc2)c(=S)[nH]1 | inconclusive [activator, partial curve] | –
44 | CC(=O)OC1CC(c2cc(C(C)(C)C)c(O)c(C(C)(C)C)c2)=NO1 (stereo unspecified) | inconclusive [activator, single point] | –
45 | Cc1cc(OCc2cc(C(=O)N(C)Cc3nonc3C)no2)cc(C)c1Cl | active: 14.1 µM | –
46 | O=C(COc1ccc(Cl)cc1)NNC(=O)c1ccccn1 | inconclusive [activator, single point] | –
47 | CCOc1ccc(-c2nc(C#N)c(NC3CC3)o2)cc1 | inactive | –
48 | Cn1ncc2c(Nc3ccc(Cl)c(Cl)c3)ncnc21 | inactive | –

Row | Compound | Potency | growth rescue
49 | CCN1C(C(=O)Nc2cc(C)on2)=C(O)c2ccccc2S1(=O)=O | inconclusive [activator, full curve, poor fit] | –
50 | COc1ccccc1/C=C/C(=O)N1CCc2cc(OC)c(OC)cc2C1C (stereo unspecified) | inconclusive [activator, partial curve] | –
51 | COc1cc2c(cc1NC(=O)C(c1ccccc1)c1ccccc1)CCCC2 | inconclusive [activator, partial curve, poor fit] | –
52 | CCOc1ccc(N=Nc2ccc(O)c3ncccc23)cc1 | inconclusive [activator, partial curve, poor fit] | –
53 | Cn1c2ccccc2c2ncn(CCC3=CCCCC3)c(=O)c21 | inactive | –
54 | CCn1c2ccccc2c2cc(NC(=O)COC(=O)C3CCC(=O)N3)ccc21 (stereo unspecified) | inactive | –
55 | Cc1ccc(OCCCc2c(C)n[nH]c2C)cc1 | inconclusive [activator, partial curve, poor fit] | –
56 | Cc1ccc(C(C[N+](=O)[O-])n2nc(C)cc2C)cc1 (stereo unspecified) | inconclusive [activator, partial curve, poor fit] | –
57 | O=C(CC1NCCNC1=O)Nc1cccc(F)c1 (stereo unspecified) | inactive | –
58 | CCN(Cc1ccccc1)S(=O)(=O)c1ccc(C(=O)Nc2nnc(C)o2)cc1 | inconclusive [activator, partial curve, poor fit] | –
59 | O=C(c1c[nH]c2ccccc12)C(F)(F)F | inconclusive [activator, single point] | –
60 | CC(C)c1ccc(NC(=O)c2cc([N+](=O)[O-])ccc2N2CCOCC2)cc1 | inconclusive [activator, partial curve, poor fit] | –
61 | COc1cccc(C(O)c2nc(-c3ccc(Cl)cc3)cs2)c1 (stereo unspecified) | inconclusive [activator, single point] | –
62 | COc1ccc(OCC(=O)Nc2ccc(N3CCN(Cc4ccccc4F)CC3)cc2)cc1 | inactive | –
63 | Cc1ccc(NC(=O)CCn2cccc2)cc1 | inconclusive [activator, full curve] | –
64 | CC(OC(=O)C1CCCCC1)C(=O)Nc1cccc(Cl)c1 (stereo unspecified) | inconclusive [activator, partial curve, poor fit] | –
65 | O=C(CSc1nc2c(c(=O)[nH]1)CN(Cc1ccc3c(c1)OCO3)CC2)Nc1ccc(F)cc1 | inactive | –
66 | COc1ccc(Nc2c([N+](=O)[O-])ccc3c2=NC2(CCCCC2)N=3)cc1 | inconclusive [activator, partial curve, poor fit] | –
67 | COC(=O)c1cc(NC(=O)CN(c2ccccc2)S(=O)(=O)N(C)C)ccc1Cl | inactive | –
68 | O=C(NC(=S)Nc1ccc(Cl)cn1)C(c1ccccc1)c1ccccc1 | inconclusive [activator, full curve, poor fit] | –
69 | Cc1cc(C)c2nc(NNC(=O)c3cc(-c4cccs4)nc4ccccc34)sc2c1 | inconclusive [activator, single point] | –
70 | O=C(c1cc(-c2ccc(O)cc2)on1)N1CCN(c2ccc(F)cc2)CC1 | inconclusive [activator, partial curve] | –
71 | Cc1cc(-c2nnc3n2N=C(c2ccccc2Br)CS3)n[nH]1 | inconclusive [activator, partial curve, poor fit] | –
